The record followed here is article PMC9911399, “Two distinct binding modes provide the RNA-binding protein RbFox with extraordinary sequence specificity”.

T1: RBFOX1 RRM RbFoxmut (Fox-RRM*) (Homo sapiens, UniProt Q9NWB1 109-208, R118D;E147R;N151S;E152T)
T1 sequence: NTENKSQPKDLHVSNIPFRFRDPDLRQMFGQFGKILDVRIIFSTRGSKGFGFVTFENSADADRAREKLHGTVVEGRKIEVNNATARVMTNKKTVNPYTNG

B1: GUUUUGC (DNA:RNA)
RNA: GGGAGACCGGAAUUCAGAUUGUCCGUUUUGCUUAAAUCCCGUCGUAGCCACCA
DNA 1: CAATCTGAATTCCGGTCTCCC
DNA 2: TGGTGGCTACGACGGGATT
B2: UAAUUGG (DNA:RNA)
RNA: B1 RNA with G25U, U26A, U27A, C31G
DNA 1: CAATCTGAATTCCGGTCTCCC
DNA 2: TGGTGGCTACGACGGGATT
B3: AAGCCUC (DNA:RNA)
RNA: B1 RNA with G25A, U26A, U27G, U28C, U29C, G30U
DNA 1: CAATCTGAATTCCGGTCTCCC
DNA 2: TGGTGGCTACGACGGGATT
B4: CCGGGAG (DNA:RNA)
RNA: GGGAGACCGGAAUUCAGAUUGUCCCCGGGAGUUAAAUCCCGUCGUAGCCACCA
DNA 1: CAATCTGAATTCCGGTCTCCC
DNA 2: TGGTGGCTACGACGGGATT
B5: AAUACCA (DNA:RNA)
RNA: B1 RNA with G25A, U26A, U28A, U29C, G30C, C31A
DNA 1: CAATCTGAATTCCGGTCTCCC
DNA 2: TGGTGGCTACGACGGGATT
B6: AAGAACU (DNA:RNA)
RNA: B4 RNA with C25A, C26A, G28A, G29A, A30C, G31U
DNA 1: CAATCTGAATTCCGGTCTCCC
DNA 2: TGGTGGCTACGACGGGATT
B7: GAUGGUU (DNA:RNA)
RNA: B4 RNA with C25G, C26A, G27U, A30U, G31U
DNA 1: CAATCTGAATTCCGGTCTCCC
DNA 2: TGGTGGCTACGACGGGATT
B8: GCUUCCG (DNA:RNA)
RNA: B1 RNA with U26C, U29C, G30C, C31G
DNA 1: CAATCTGAATTCCGGTCTCCC
DNA 2: TGGTGGCTACGACGGGATT
B9: UUAGUGC (DNA:RNA)
RNA: B1 RNA with G25U, U27A, U28G
DNA 1: CAATCTGAATTCCGGTCTCCC
DNA 2: TGGTGGCTACGACGGGATT
B10: GACUCAU (DNA:RNA)
RNA: B1 RNA with U26A, U27C, U29C, G30A, C31U
DNA 1: CAATCTGAATTCCGGTCTCCC
DNA 2: TGGTGGCTACGACGGGATT
B11: ACGUUUG (DNA:RNA)
RNA: B4 RNA with C25A, G28U, G29U, A30U
DNA 1: CAATCTGAATTCCGGTCTCCC
DNA 2: TGGTGGCTACGACGGGATT
B12: UAUGGAC (DNA:RNA)
RNA: B4 RNA with C25U, C26A, G27U, G31C
DNA 1: CAATCTGAATTCCGGTCTCCC
DNA 2: TGGTGGCTACGACGGGATT
B13: UAUCUGU (DNA:RNA)
RNA: B1 RNA with G25U, U26A, U28C, C31U
DNA 1: CAATCTGAATTCCGGTCTCCC
DNA 2: TGGTGGCTACGACGGGATT
B14: CUGGGCG (DNA:RNA)
RNA: B4 RNA with C26U, A30C
DNA 1: CAATCTGAATTCCGGTCTCCC
DNA 2: TGGTGGCTACGACGGGATT
B15: CGGGUUG (DNA:RNA)
RNA: B4 RNA with C26G, G29U, A30U
DNA 1: CAATCTGAATTCCGGTCTCCC
DNA 2: TGGTGGCTACGACGGGATT
B16: CGGCCAA (DNA:RNA)
RNA: B4 RNA with C26G, G28C, G29C, G31A
DNA 1: CAATCTGAATTCCGGTCTCCC
DNA 2: TGGTGGCTACGACGGGATT
B17: UGGCGCG (DNA:RNA)
RNA: B4 RNA with C25U, C26G, G28C, A30C
DNA 1: CAATCTGAATTCCGGTCTCCC
DNA 2: TGGTGGCTACGACGGGATT
B18: AACGGUU (DNA:RNA)
RNA: B4 RNA with C25A, C26A, G27C, A30U, G31U
DNA 1: CAATCTGAATTCCGGTCTCCC
DNA 2: TGGTGGCTACGACGGGATT
B19: GUCAUCC (DNA:RNA)
RNA: B1 RNA with U27C, U28A, G30C
DNA 1: CAATCTGAATTCCGGTCTCCC
DNA 2: TGGTGGCTACGACGGGATT
B20: CAUAUAA (DNA:RNA)
RNA: B4 RNA with C26A, G27U, G28A, G29U, G31A
DNA 1: CAATCTGAATTCCGGTCTCCC
DNA 2: TGGTGGCTACGACGGGATT
B21: AGCCCUG (DNA:RNA)
RNA: B4 RNA with C25A, C26G, G27C, G28C, G29C, A30U
DNA 1: CAATCTGAATTCCGGTCTCCC
DNA 2: TGGTGGCTACGACGGGATT
B22: GCCCGAC (DNA:RNA)
RNA: B4 RNA with C25G, G27C, G28C, G31C
DNA 1: CAATCTGAATTCCGGTCTCCC
DNA 2: TGGTGGCTACGACGGGATT
B23: CGCACAU (DNA:RNA)
RNA: B4 RNA with C26G, G27C, G28A, G29C, G31U
DNA 1: CAATCTGAATTCCGGTCTCCC
DNA 2: TGGTGGCTACGACGGGATT
B24: CCGUGAU (DNA:RNA)
RNA: B4 RNA with G28U, G31U
DNA 1: CAATCTGAATTCCGGTCTCCC
DNA 2: TGGTGGCTACGACGGGATT
B25: CUCUAAU (DNA:RNA)
RNA: B4 RNA with C26U, G27C, G28U, G29A, G31U
DNA 1: CAATCTGAATTCCGGTCTCCC
DNA 2: TGGTGGCTACGACGGGATT
B26: UCCUCUG (DNA:RNA)
RNA: B4 RNA with C25U, G27C, G28U, G29C, A30U
DNA 1: CAATCTGAATTCCGGTCTCCC
DNA 2: TGGTGGCTACGACGGGATT
B27: AACAGCA (DNA:RNA)
RNA: B4 RNA with C25A, C26A, G27C, G28A, A30C, G31A
DNA 1: CAATCTGAATTCCGGTCTCCC
DNA 2: TGGTGGCTACGACGGGATT
B28: GCCUCAG (DNA:RNA)
RNA: B4 RNA with C25G, G27C, G28U, G29C
DNA 1: CAATCTGAATTCCGGTCTCCC
DNA 2: TGGTGGCTACGACGGGATT
B29: GCUGAAC (DNA:RNA)
RNA: B4 RNA with C25G, G27U, G29A, G31C
DNA 1: CAATCTGAATTCCGGTCTCCC
DNA 2: TGGTGGCTACGACGGGATT
B30: GCGAAAA (DNA:RNA)
RNA: B4 RNA with C25G, G28A, G29A, G31A
DNA 1: CAATCTGAATTCCGGTCTCCC
DNA 2: TGGTGGCTACGACGGGATT
B31: GCAUGAU (DNA:RNA)
RNA: B4 RNA with C25G, G27A, G28U, G31U
DNA 1: CAATCTGAATTCCGGTCTCCC
DNA 2: TGGTGGCTACGACGGGATT

Numbering of substitutions follows the chain as printed; changes in the protein carry UniProt numbers. The list shows a part of the results.

The assay addresses T1, RBFOX1 RRM RbFoxmut (Fox-RRM*). Nature of the assay: EMSA; HiTS-Eq, 1 nM pool, 10 min; buffer printed only for the single-RNA assays: 10 mM Tris pH 7.5, 150 mM NaCl, 3.4 mM EDTA, 0.001% NP-40, 30 C. As to conditions: tags: His6 N-terminal (pET28a); label: 5' 32P. The method in brief: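 Relative association constants, normalised to the cognate motif, were derived by comparing read counts of each RNA species with those of the control reaction. The RNA sequenced was the free fraction, separated by 8% native PAGE after a 10 min equilibration in 50 µL of 1 nM 5′-radiolabelled RNA (7 randomized nucleotides) with increasing concentrations of purified wild-type or mutant RbFox RRM.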
(Mobility shift assays separate free from complexed probe on a gel.)
For B1, the binding signal is 0.116 KA relative to UGCAUGU. Next, B2: 0.0719 KA relative to UGCAUGU; B3: 0.039 KA relative to UGCAUGU; B4: 0.122 KA relative to UGCAUGU. In the case of B5, the binding signal was 0.078 KA relative to UGCAUGU. Regarding B6, the binding signal was 0.0822 KA relative to UGCAUGU. Regarding B7, the binding signal is 0.0937 KA relative to UGCAUGU.

For the molecule B8, the binding signal was 0.0906 KA relative to UGCAUGU. As for B9, the figure is 0.125 KA relative to UGCAUGU. Consider B10, for which the binding signal is 0.0995 KA relative to UGCAUGU. As to B11, the binding signal was 0.269 KA relative to UGCAUGU. Consider B12, for which the binding signal was 0.0737 KA relative to UGCAUGU.

B13: the binding signal is 0.067 KA relative to UGCAUGU. As for B14, the binding signal was 0.158 KA relative to UGCAUGU. Turning to B15, the binding signal was 0.66 KA relative to UGCAUGU. For the molecule B16, the binding signal is 0.0685 KA relative to UGCAUGU. B17: the binding signal is 0.19 KA relative to UGCAUGU. B18: the binding signal is 0.0662 KA relative to UGCAUGU.

Regarding B19, the binding signal was 0.112 KA relative to UGCAUGU. As for B20, the binding signal is 0.095 KA relative to UGCAUGU. As for B21, the binding signal was 0.0683 KA relative to UGCAUGU. As to B22, the binding signal was 0.0966 KA relative to UGCAUGU. Turning to B23, the binding signal was 0.0644 KA relative to UGCAUGU. Consider B24, for which the binding signal is 0.0964 KA relative to UGCAUGU.

In the case of B25, the binding signal is 0.082 KA relative to UGCAUGU.

With B26, the binding signal is 0.108 KA relative to UGCAUGU. Turning to B27, the binding signal was 0.1 KA relative to UGCAUGU. With B28, the binding signal is 0.117 KA relative to UGCAUGU.

Regarding B29, the binding signal was 0.0724 KA relative to UGCAUGU.

With B30, the binding signal was 0.0802 KA relative to UGCAUGU. Next, B31: 0.551 KA relative to UGCAUGU.
